According to PubChem BioAssay AID1745845 (National Center for Advancing Translational Sciences (NCATS), 2022):
Where “and” joins values, the source holds several entries; their conditions need not be identical. Equal values may be shown once. In all, about 360,000 compounds went through this assay and about 2,600 (0.72%) were called active. This list was built around the results that the source calls inconclusive (neither active nor inactive); the mix of calls is not that of the screen. Calls come from the whole dose curve; as a rule, active = well fitted inhibition curve with a large enough effect; inconclusive = small, poorly fitted or top-dose-only effect; inactive = no such curve, though single readings can be large or run the other way. A potency beside an inconclusive call is a rough fit, not a confirmed value.
% is set by controls: 0 for no effect and ±100 for the full control effect; potency is the fitted concentration of half-maximal effect; tags give direction and shape of the fitted curve.

Assay: Primary qHTS for Inhibitors of ATXN expression; note: nearly all actives have a fitted effect of over 55% in size
Conditions: HEK-293 ATXN2-luciferase reporter, luminescence, 24 h; activity change, negative = inhibition: at 57 µM (top of the series)
Outline: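 qHTS (up to 57 uM final) was run with 24 h compound exposure of reporter cells at 37 °C. Each well was multiplexed: SteadyGlo luminescence measured ATXN2-luciferase expression after a fluorogenic Gly-Phe-AFC viability readout (25 uM final).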
For `O=C1NC(=O)N(Cc2ccco2)C(=O)/C1=C/C=C/c1ccco1`, the Potency was inconclusive: 39.8 µM [inhibitor, single point].
With `c1ccc(CCCN2CCN(CCOC(c3ccccc3)c3ccccc3)CC2)cc1` the Potency was active: 27.3 µM and inconclusive: 39.8 µM [inhibitor, single point].
For `Cc1ccc(-c2cc(-c3ccccc3)cc(-c3ccccc3)[n+]2-c2ccccc2C(=O)O)cc1`, the Potency was inconclusive: 39.8 µM [inhibitor, single point].
With `CC(C)(C)n1nnnc1C(CCc1ccccc1)N1CCC2(CC1)C(=O)NCN2c1ccccc1` (centres undefined) the Potency was inconclusive: 31.6 µM [inhibitor, single point].
In the case of `CCC(CO)(C(=O)OC1C[N+]2(C)CCC1CC2)c1ccccc1` (centres undefined), the activity change, negative = inhibition is reported as inactive: 18.3% [at 11.3 µM].
In the case of `N#Cc1cc2c(nc1SCC(=O)Nc1ccc(OC(F)(F)F)cc1)C1CCN2CC1`, the Potency is reported as inconclusive: 22.4 µM [inhibitor, partial curve].
For `COC(=O)C1=C(c2cccc(OCc3ccccc3)c2)C[C@@H]2CC[C@H]1N2C(=O)NCCOc1ccccc1`, the Potency was inconclusive: 39.8 µM [inhibitor, partial curve, poor fit].
In the case of `CCCCC(=O)N/N=C/c1c(O)n(CCC2=CCCCC2)c(=O)[nH]c1=O`, the Potency is reported as inconclusive: 3.77 µM [inhibitor, partial curve].
In the case of `CCCCCCOc1ccc(CN2CCN(C)CC2)cc1`, the Potency is reported as inconclusive: 17.8 µM [inhibitor, single point].
For `CC1=CC2OC3CC4OC(=O)C=CC=CC(=O)OCCC(C)C(O)C(=O)OCC2(CC1)C4(C)C31CO1` (centres undefined), the Potency was inconclusive: 0.0119 µM [inhibitor, full curve].
With `CCCN(CCC)c1c([N+](=O)[O-])cc(S(N)(=O)=O)cc1[N+](=O)[O-]` the Potency was active: 50.1 µM.
With `Cc1nc2cc(-c3ccccc3)nn2c(C)c1CCC(=O)N1CCC2(CC1)OCCO2` the Potency was inconclusive: 12.6 µM [inhibitor, partial curve, poor fit].
For `O=c1c(C=NCCN2CCNCC2)c(O)n(C2CCCCC2)c(=O)n1C1CCCCC1`, the Potency was inconclusive: 22.4 µM [inhibitor, single point].
With `COC(=O)C1=C(c2ccc(OC(F)(F)F)cc2)C[C@@H]2CC[C@H]1N2C(=O)NCCOc1ccc(OC)cc1` the Potency was inconclusive: 39.8 µM [inhibitor, single point].
With `Cc1ccc(-c2nc(CN3C(=O)CN=C(c4ccccc4)c4cc(Cl)ccc43)c(C)o2)cc1` the Potency was inconclusive: 39.8 µM [inhibitor, single point].
For `O=C(NCCN1CCC(n2c(=O)[nH]c3ccccc32)CC1)c1ccc2ccccc2c1`, the Potency was inconclusive: 39.8 µM [inhibitor, single point].
For `COC(=O)C1=C(c2ccccc2OCc2ccccc2)C[C@@H]2CC[C@H]1N2C(=O)NCc1ccccc1`, the Potency was inconclusive: 22.4 µM [inhibitor, partial curve, poor fit].
With `COC(=O)C1=C(c2ccc(-c3ccccc3)c(F)c2)C[C@@H]2CC[C@H]1N2C(=O)N1CCCCC1` the Potency was inconclusive: 14.1 µM [inhibitor, partial curve].
In the case of `CCOC(=O)[C@]12Cc3ccccc3[C@H]1N(C(C)C)C(=O)c1cc(OC)ccc12`, the Potency is reported as inconclusive: 22.4 µM [inhibitor, single point].
In the case of `C=CCNC(=S)/N=C/c1c(O)[nH]c(=O)[nH]c1=O`, the Potency is reported as inconclusive: 0.267 µM [inhibitor, full curve, poor fit].
With `CCOC(=O)[C@]12Cc3cc(Cl)ccc3[C@H]1N(C(C)C)C(=O)c1ccccc12` the Potency was active: 5.62 µM.
For `O=C(CCc1ccccc1)N1Cc2cc(-c3ccccc3)ccc2-n2nncc2C1`, the Potency was inconclusive: 39.8 µM [inhibitor, single point].
For `O=C1NC(=O)N(Cc2ccc(F)cc2)C(=O)/C1=C\c1ccc(N2CCCC2)cc1`, the Potency was “inactive”.
For `CCOC(=O)C1(CCOc2ccccc2)CCN(Cc2ccccc2OC)CC1`, the Potency was inconclusive: 37.7 µM [inhibitor, single point].
With `CCN(CC)C(=O)Cn1cc(/C=C2\C(=O)NC(=O)N(c3ccccc3F)C2=O)c2ccccc21` the Potency was inconclusive: 42.3 µM [inhibitor, partial curve, poor fit].
For `COc1ccc(CC(=O)N2C[C@H]3C[C@@H](C2)c2cccc(=O)n2C3)cc1`, the Potency was “inactive”.
For `CC[C@H]1C[C@@H]2C[C@H]3c4[nH]c5ccc(OC)cc5c4CCN(C2)[C@@H]13`, the Potency was inconclusive: 56.2 µM [inhibitor, partial curve].
With `CCOc1cc(CNCCc2c[nH]c3ccccc23)cc(Cl)c1OCC` the Potency was inconclusive: 22.4 µM [inhibitor, partial curve, poor fit].
In the case of `COc1cccc(C(c2nnnn2C(C)(C)C)N2CCC3(CC2)C(=O)NCN3c2ccccc2)c1OC` (centres undefined), the Potency is reported as inconclusive: 22.4 µM [inhibitor, partial curve, poor fit].
For `CN1CCCN(C(=O)COc2ccccc2)CC1`, the Potency was “inactive”.
For `COC1C(OC(=O)c2ccc(C)[nH]2)C(O)C(Oc2ccc3c(O)c(NC(=O)c4ccc(O)c(CC=C(C)C)c4)c(=O)oc3c2Cl)OC1(C)C` (centres undefined), the Potency was inconclusive: 39.8 µM [inhibitor, single point].
In the case of `COC(=O)C1=C(c2ccc(F)cc2OCc2ccccc2)C[C@@H]2CC[C@H]1N2C(=O)NC1CCCCC1`, the Potency is reported as inconclusive: 35.5 µM [inhibitor, single point].
In the case of `COc1ccc(CNCCc2ccc(Cl)cc2)c(OC)c1OC`, the Potency is reported as inconclusive: 3.55 µM [inhibitor, partial curve, poor fit].
For `CCCCCCC(=O)CCCCCC/C=C/C[C@@H](O)[C@H](O)[C@@](N)(CO)C(=O)O`, the Potency was “inactive”.
In the case of `COC(=O)C1=C(c2ccc(F)cc2F)C[C@@H]2CC[C@H]1N2C(=O)NCC1CC1`, the Potency is reported as “inactive”.
For `c1ccc2c(CNC3CCCCCC3)c[nH]c2c1`, the Potency was active: 20 µM.
In the case of `Cc1cccc(CNCCc2c[nH]c3ccccc23)c1`, the Potency is reported as inconclusive: 1.41 µM [inhibitor, full curve, poor fit].
For `COC(=O)C1CN(C#N)N(c2ccc(Cl)cc2)C12c1ccccc1-c1ccccc12` (centres undefined), the Potency was active: 3.98 µM.
In the case of `COC(=O)C1=C(c2ccc(OC)c(OC)c2)C[C@@H]2CC[C@H]1N2C(=O)N1CCC(O)CC1`, the Potency is reported as “inactive”.
For `O=C(O)Cn1cc(/C=C2\C(=O)NC(=O)N(Cc3ccco3)C2=O)c2ccccc21`, the Potency was “inactive”.
In the case of `COc1ccc(CCNC(=O)c2c(N)n(CCN3CCOCC3)c3nc4ccccc4nc23)cc1OC`, the Potency is reported as inconclusive: 28.2 µM [inhibitor, single point].
With `CC1(C)C2CC=C(CN3CCOCC3)C1C2` (centres undefined) the Potency was “inactive”.
In the case of `CCOC(=O)C(C)(CC)NC(=O)CSP(=S)(OCC)OCC` (centres undefined), the Potency is reported as “inactive”.
For `N#Cc1ccc(NC(=O)CN2C(=O)NC3(CCCCCCC3)C2=O)cc1Cl`, the Potency was “inactive”.
For `CC(C)(C)n1nnnc1C(c1cccc2ccccc12)N1CCC2(CC1)C(=O)NCN2c1ccccc1` (centres undefined), the Potency was inconclusive: 31.6 µM [inhibitor, single point].
In the case of `CCOC(=O)c1cccc(C2=C(CNC(=O)c3nccs3)[C@H]3CC[C@@H](C2)N3Cc2ccccc2)c1`, the Potency is reported as inconclusive: 17.8 µM [inhibitor, partial curve, poor fit].
For `O=C1C(=O)c2cccc3cccc1c23`, the Potency was inconclusive: 12.6 µM [inhibitor, partial curve, poor fit].
For `Cc1cc(N(CCCl)CCCl)ccc1/C=N/N=C(\N)c1cnccn1`, the Potency was inconclusive: 7.94 µM [inhibitor, partial curve, poor fit].
For `O=[N+]([O-])c1ccc(C[n+]2c(-c3ccccc3)cc(-c3ccccc3)cc2-c2ccccc2)cc1`, the Potency was “inactive”.
For `Clc1ccc(C(c2ccc(Cl)cc2)n2cc[n+](CC(OCc3ccc(Cl)cc3Cl)c3ccc(Cl)cc3Cl)c2)cc1` (centres undefined), the Potency was active: 28.2 µM and inconclusive: 27.3 µM [inhibitor, single point].
In the case of `COC(=O)C1=C(c2ccc(OC(F)(F)F)cc2)C[C@@H]2CC[C@H]1N2C(=O)NCc1cccc2ccccc12`, the Potency is reported as inconclusive: 39.8 µM [inhibitor, single point].
In the case of `O=c1[nH]c2ccccc2n1C1CCN(C(c2ccccc2OC(F)(F)F)c2nnnn2-c2ccc3c(c2)OCCO3)CC1` (centres undefined), the Potency is reported as active: 12.6 µM.
In the case of `CN(c1ccc(OCC(=O)N2CCN(C/C=C/c3ccccc3)CC2)cc1)S(=O)(=O)c1cccs1`, the Potency is reported as inconclusive: 20 µM [inhibitor, partial curve].
With `C[n+]1c(-c2ccccc2)cc(CCCCc2cc(-c3ccccc3)[n+](C)c(-c3ccccc3)c2)cc1-c1ccccc1` the Potency was inconclusive: 37.7 µM [inhibitor, single point].
With `CCCCN=C[C@]12CCC(O)CC1(O)CCC1[C@@H]2CC[C@]2(C)[C@H](C3C=CC(=O)O3)CCC12O` (some centres undefined) the activity change, negative = inhibition was inconclusive: -86.4% [inhibitor].
In the case of `N#C[C@H](O[C@@H]1O[C@H](CO[C@@H]2O[C@H](CO)[C@H](O)[C@H](O)[C@H]2O)[C@H](O)[C@H](O)[C@H]1O)c1ccccc1`, the Potency is reported as inconclusive: 21.7 µM [inhibitor, single point].
With `COC(=O)C1=C(c2ccc(F)cc2OCc2ccccc2)C[C@@H]2CC[C@H]1N2C(=O)NCc1ccc(Br)cc1` the Potency was “inactive”.
With `N#CSCC(=O)N1c2ccccc2CCc2ccccc21` the Potency was inconclusive: 39.8 µM [inhibitor, single point].
For `CCOC(=O)[C@]12Cc3cc(C)ccc3[C@H]1N(C1CCCCC1)C(=O)c1cc(OC)ccc12`, the Potency was active: 5.01 µM.
